The values below come from the supplement of paper PMC4967469.

Compound in the assay: FC(F)c1nc2ccccc2n1-c1nc(N2CCOCC2)nc(N2CCOCC2)n1 [ZSTK474]
The assay is described as follows: Viability of human cancer cell lines after 72 h of drug (GDSC screen). As to the method:
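Human cancer cell lines in 384-well plates, medium with 10% serum, drug for 72 h over a 256-fold dose range (nine 2-fold or five 4-fold steps up to the top dose). Adherent lines were fixed and stained with the nucleic acid dye Syto60, suspension lines read with resazurin; signal relative to control wells, capped at 0 and 100%. One two-parameter sigmoid per drug and line, fitted in a mixed model over all curves with the slope shared within a line.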

By IC50 is meant the dose at which the fit gives 50% viability; fits outside the tested doses are given as limits. For AUC the same curve is integrated over the 256-fold range of doses and scaled to a fraction; the more sensitive the line, the further below 1.

As for “BE2-M17 (neuroblastoma, adherent, top dose 5.12 µM)”, the AUC came out at 0.896 and the IC50 is over 5120 nM.

On to “BE-13 (lymphoblastic leukaemia, suspension, top dose 5.12 µM)”, for which the AUC came out at 0.898 and the IC50 is over 5120 nM.

Take “BEN (non-small cell lung carcinoma, adherent, top dose 5.12 µM)”: the AUC was found to be 0.818 and the IC50 is 3430 nM.

As to “BFTC-905 (bladder, adherent, top dose 5.12 µM)”, the AUC was 0.778 and the IC50 came to 1780 nM.

On to “BFTC-909 (kidney, adherent, top dose 5.12 µM)”, for which the AUC was 0.947 and the IC50 is over 5120 nM.

For “BHT-101 (thyroid, adherent, top dose 5.12 µM)”, the AUC is 0.772 and the IC50 was 2040 nM.

Take “BHY (head and neck, adherent, top dose 5.12 µM)”: the AUC was determined as 0.704 and the IC50 was 1210 nM.

For “BICR10 (head and neck, adherent, top dose 5.12 µM)”, the AUC is 0.883 and the IC50 is over 5120 nM.

Turning to “BICR22 (head and neck, adherent, top dose 5.12 µM)”, the AUC came out at 0.796 and the 50% inhibitory concentration (IC50) was determined as 2810 nM.

As to “BICR31 (head and neck, adherent, top dose 5.12 µM)”, the AUC worked out at 0.918 and the IC50 was over 5120 nM.

As for “BICR78 (head and neck, adherent, top dose 5.12 µM)”, the AUC turned out to be 0.902 and the IC50 is over 5120 nM.

“BL-41 (Burkitt lymphoma, suspension, top dose 5.12 µM)”: the AUC worked out at 0.183 and the IC50 came to 50.1 nM.

On to “BPH-1 (prostate, adherent, top dose 5.12 µM)”, for which the AUC amounted to 0.418 and the IC50 worked out at 186 nM.

“BT-20 (breast, adherent, top dose 5.12 µM)”: the AUC came to 0.735 and the concentration for half-maximal inhibition (IC50) was 1800 nM.

Regarding “BT-474 (breast, adherent, top dose 5.12 µM)”, the AUC was 0.572 and the IC50 amounted to 515 nM.

As for “BT-483 (breast, adherent, top dose 5.12 µM)”, the AUC came out at 0.512 and the IC50 came out at 355 nM.

For the cell line “BV-173 (chronic myeloid leukaemia, suspension, top dose 5.12 µM)”, the AUC is 0.815 and the IC50 was found to be 2400 nM.

For the cell line “Becker (glioma, adherent, top dose 5.12 µM)”, the AUC was 0.654 and the IC50 came out at 910 nM.

Regarding “BxPC-3 (pancreas, adherent, top dose 5.12 µM)”, the AUC was 0.785 and the IC50 was determined as 2480 nM.

Consider “C2BBe1 (large intestine, adherent, top dose 5.12 µM)”, for which the AUC is 0.808 and the IC50 came to 3080 nM.

With C3A (liver, adherent, top dose 5.12 µM), the AUC was 0.981 and the IC50 was over 5120 nM.

In the case of “C32 (melanoma, adherent, top dose 5.12 µM)”, the AUC worked out at 0.983 and the IC50 was over 5120 nM.

Turning to “C-4-I (cervix, adherent, top dose 5.12 µM)”, the AUC is 0.977 and the IC50 was over 5120 nM.

For “C-33-A (cervix, adherent, top dose 5.12 µM)”, the AUC is 0.778 and the IC50 is 2080 nM.

Consider “CA46 (Burkitt lymphoma, suspension, top dose 5.12 µM)”, for which the AUC was determined as 0.411 and the 50% inhibitory concentration (IC50) worked out at 179 nM.

With “CADO-ES1 (Ewing sarcoma, suspension, top dose 5.12 µM)”, the AUC came out at 0.509 and the IC50 is 338 nM.

For the cell line “CAKI-1 (kidney, adherent, top dose 5.12 µM)”, the AUC was determined as 0.692 and the half-maximal inhibitory concentration (IC50) was determined as 1460 nM.

For “CAL-12T (non-small cell lung carcinoma, adherent, top dose 5.12 µM)”, the AUC came to 0.612 and the IC50 was 677 nM.

Turning to “CAL-27 (head and neck, adherent, top dose 5.12 µM)”, the AUC was determined as 0.878 and the IC50 was over 5120 nM.

Turning to “CAL-29 (bladder, adherent, top dose 5.12 µM)”, the AUC was found to be 0.737 and the IC50 was 1620 nM.

“CAL-33 (head and neck, adherent, top dose 5.12 µM)”: the AUC was determined as 0.667 and the IC50 amounted to 935 nM.

As for “CAL-39 (cervix, adherent, top dose 5.12 µM)”, the AUC was found to be 0.899 and the IC50 was over 5120 nM.

For the cell line “CAL-51 (breast, adherent, top dose 5.12 µM)”, the AUC is 0.907 and the IC50 was over 5120 nM.

For the cell line “CAL-54 (kidney, adherent, top dose 5.12 µM)”, the AUC was 0.925 and the IC50 was over 5120 nM.

For “CAL-62 (thyroid, adherent, top dose 5.12 µM)”, the AUC was determined as 0.832 and the IC50 stood at 3050 nM.

For the cell line “CAL-72 (osteosarcoma, adherent, top dose 5.12 µM)”, the AUC was determined as 0.984 and the IC50 was over 5120 nM.

As for “CAL-78 (chondrosarcoma, adherent, top dose 5.12 µM)”, the AUC was found to be 0.986 and the IC50 was over 5120 nM.

As to “CAL-85-1 (breast, adherent, top dose 5.12 µM)”, the AUC was 0.822 and the half-inhibitory concentration (IC50) was 4150 nM.

For the cell line “CAL-120 (breast, adherent, top dose 5.12 µM)”, the AUC is 0.719 and the IC50 amounted to 1620 nM.

Turning to “CAL-148 (breast, suspension, top dose 5.12 µM)”, the AUC turned out to be 0.904 and the IC50 was over 5120 nM.

On to “CAMA-1 (breast, adherent, top dose 5.12 µM)”, for which the AUC was found to be 0.813 and the IC50 was 3700 nM.

As to “CAPAN-1 (pancreas, adherent, top dose 5.12 µM)”, the AUC was found to be 0.874 and the IC50 was over 5120 nM.

For “CAS-1 (glioma, adherent, top dose 5.12 µM)”, the AUC was 0.91 and the IC50 is over 5120 nM.

On to “CCF-STTG1 (glioma, adherent, top dose 5.12 µM)”, for which the AUC stood at 0.986 and the half-maximal inhibitory concentration (IC50) was over 5120 nM.

On to “CCK-81 (large intestine, adherent, top dose 5.12 µM)”, for which the AUC amounted to 0.69 and the IC50 was found to be 1050 nM.

“CCRF-CEM (lymphoblastic leukaemia, suspension, top dose 5.12 µM)”: the AUC is 0.392 and the IC50 came to 170 nM.

For the cell line “CESS (acute myeloid leukaemia, suspension, top dose 5.12 µM)”, the AUC was determined as 0.354 and the IC50 worked out at 135 nM.

On to “CFPAC-1 (pancreas, adherent, top dose 5.12 µM)”, for which the AUC was 0.842 and the half-inhibitory concentration (IC50) stood at 4380 nM.

Turning to “CGTH-W-1 (thyroid, adherent, top dose 5.12 µM)”, the AUC amounted to 0.916 and the IC50 is over 5120 nM.

In the case of “CHL-1 (melanoma, adherent, top dose 5.12 µM)”, the AUC was found to be 0.485 and the IC50 worked out at 292 nM.

On to “CHP-134 (neuroblastoma, suspension, top dose 5.12 µM)”, for which the AUC worked out at 0.826 and the IC50 was determined as 4310 nM.

For the cell line “CHP-212 (neuroblastoma, adherent, top dose 5.12 µM)”, the AUC was determined as 0.662 and the IC50 was determined as 868 nM.

With “CHSA0011 (chondrosarcoma, adherent, top dose 5.12 µM)”, the AUC was found to be 0.868 and the half-inhibitory concentration (IC50) is over 5120 nM.

Turning to “CHSA0108 (chondrosarcoma, adherent, top dose 5.12 µM)”, the AUC was determined as 0.929 and the IC50 is over 5120 nM.

Turning to “CHSA8926 (chondrosarcoma, adherent, top dose 5.12 µM)”, the AUC worked out at 0.863 and the IC50 is over 5120 nM.

For the cell line “CL-11 (large intestine, adherent, top dose 5.12 µM)”, the AUC turned out to be 0.972 and the IC50 was over 5120 nM.

Regarding “CMK (acute myeloid leukaemia, suspension, top dose 5.12 µM)”, the AUC stood at 0.425 and the IC50 amounted to 207 nM.

As to “COLO-205 (large intestine, suspension, top dose 5.12 µM)”, the AUC turned out to be 0.861 and the IC50 stood at 4240 nM.

With “COLO-320-HSR (large intestine, suspension, top dose 5.12 µM)”, the AUC amounted to 0.691 and the IC50 is 1010 nM.

For the cell line “COLO-668 (small cell lung carcinoma, adherent, top dose 5.12 µM)”, the AUC worked out at 0.758 and the IC50 amounted to 1780 nM.

For the cell line “COLO-678 (large intestine, semi-adherent, top dose 5.12 µM)”, the AUC came to 0.961 and the IC50 was over 5120 nM.

With “COLO-679 (melanoma, adherent, top dose 5.12 µM)”, the AUC turned out to be 0.859 and the IC50 amounted to 5110 nM.

Take “COLO-680N (oesophagus, adherent, top dose 5.12 µM)”: the AUC was 0.922 and the IC50 is over 5120 nM.

For “COLO-684 (endometrium, suspension, top dose 5.12 µM)”, the AUC was 0.384 and the IC50 was 147 nM.

As for “COLO-783 (melanoma, adherent, top dose 5.12 µM)”, the AUC was 0.963 and the IC50 is over 5120 nM.

With “COLO-792 (melanoma, adherent, top dose 5.12 µM)”, the AUC is 0.777 and the half-inhibitory concentration (IC50) was 2020 nM.
